Measured values reported in paper PMC4336329 (PLoS ONE, 2015).
The campaign covered roughly 310,000 compounds. About 2,200 (0.71%) showed an effect of 50% or more. Effects have a minus sign here. Some of the results follow.

The molecules below were run against human ether-à-go-go-related gene (hERG) potassium channel (human, UniProt Q12809) (assay: primary screen, population patch clamp on CHO cells stably expressing hERG).
Chain of human ether-à-go-go-related gene (hERG) potassium channel (Q12809 whole entry, looked up): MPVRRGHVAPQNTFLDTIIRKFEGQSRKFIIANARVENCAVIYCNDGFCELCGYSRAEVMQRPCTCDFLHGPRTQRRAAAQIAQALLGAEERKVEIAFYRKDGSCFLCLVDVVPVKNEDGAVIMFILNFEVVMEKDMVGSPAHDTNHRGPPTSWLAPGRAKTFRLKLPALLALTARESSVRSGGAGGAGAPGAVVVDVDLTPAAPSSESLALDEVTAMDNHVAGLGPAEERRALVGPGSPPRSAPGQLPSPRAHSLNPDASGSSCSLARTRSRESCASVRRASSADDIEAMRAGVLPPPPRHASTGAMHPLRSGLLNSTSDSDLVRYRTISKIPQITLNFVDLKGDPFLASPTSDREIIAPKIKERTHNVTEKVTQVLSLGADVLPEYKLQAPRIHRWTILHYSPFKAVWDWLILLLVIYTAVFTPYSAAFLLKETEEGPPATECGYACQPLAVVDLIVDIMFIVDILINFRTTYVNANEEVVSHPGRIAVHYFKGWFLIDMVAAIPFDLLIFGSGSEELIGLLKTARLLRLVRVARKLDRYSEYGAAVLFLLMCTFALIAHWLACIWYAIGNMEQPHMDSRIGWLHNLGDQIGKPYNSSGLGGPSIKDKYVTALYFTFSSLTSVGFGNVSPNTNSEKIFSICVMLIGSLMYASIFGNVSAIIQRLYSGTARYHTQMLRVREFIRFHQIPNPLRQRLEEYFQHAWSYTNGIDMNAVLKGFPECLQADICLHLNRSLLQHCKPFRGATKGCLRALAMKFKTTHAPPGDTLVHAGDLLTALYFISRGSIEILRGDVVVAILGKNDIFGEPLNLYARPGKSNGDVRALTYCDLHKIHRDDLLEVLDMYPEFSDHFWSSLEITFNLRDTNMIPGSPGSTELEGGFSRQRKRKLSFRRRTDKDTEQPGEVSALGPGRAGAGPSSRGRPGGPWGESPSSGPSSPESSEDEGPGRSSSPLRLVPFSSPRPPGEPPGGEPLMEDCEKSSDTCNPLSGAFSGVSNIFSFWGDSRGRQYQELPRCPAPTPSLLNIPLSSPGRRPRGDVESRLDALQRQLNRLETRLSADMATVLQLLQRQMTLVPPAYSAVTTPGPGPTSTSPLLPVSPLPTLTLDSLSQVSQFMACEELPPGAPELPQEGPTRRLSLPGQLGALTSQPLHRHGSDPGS

| Compound | hERG current change (%, negative = inhibition) at 1uM [%] |
| --- | --- |
| O=C1NC(=S)S/C1=C/c1ccc(N2CCOCC2)o1 | 7.39 |
| O=C(NCC1CCCO1)c1csc2c1CCCC2 (stereo not drawn) | 7.52 |
| CC(=O)Nc1ccc(S(=O)(=O)N(C)Cc2cnn(C)c2)cc1 | 13.7 |
| O=[N+]([O-])c1nn(-c2ccc3c(c2)OCCO3)n(O)c1=NC1CCCCC1 | -3.73 |
| Cn1c(CSc2nc3ccccc3s2)nc2ccccc21 | 2.04 |
| N#CC1=C(N)OC2=C(C(=O)CCC2)C1c1cc2c(cc1Cl)OCO2 (stereo not drawn) | 10.4 |
| CCOC(=O)N1CCC(NC(=O)c2cc3cc4cc(OC)ccc4nc3o2)CC1 | -1.32 |
| Cc1cc(C)n(-c2nc(-c3ccc(Cl)c(Cl)c3)cs2)n1 | 6.19 |
| COc1ccc(Nc2ncccc2C(=O)O)cc1 | 3.85 |
| CCOC(=O)c1ccc(NC(=O)CSc2nc(=O)n(CCN3CCOCC3)c3c2CCC3)cc1 | 7.46 |
| O=C(c1cc(F)ccc1F)C1CCCN(C(=O)c2ccco2)C1 (stereo not drawn) | 5.56 |
| CCOc1ccc(NC(=O)CSc2nnc(Cc3csc(C)n3)o2)cc1 | 7.31 |
| Cc1nnc2sc(-c3ccccn3)nn12 | 10.7 |
| Cc1ccc(-c2nc(SCC(=O)NCC3CCCO3)c(-c3ccc(Cl)cc3)[nH]2)cc1 (stereo not drawn) | 8.15 |
| O=C(CCNC(=O)c1ccccc1Cl)NCC(c1ccc(F)cc1)N1CCOCC1 (stereo not drawn) | 8.45 |
| COc1ccc(CN=C2NC(=O)CC(C(=O)Nc3cc(C)cc(C)c3)S2)cc1 (stereo not drawn) | -1.01 |
| Nc1ccc(-c2ccc(N)c([N+](=O)[O-])c2)cc1[N+](=O)[O-] | 5.96 |
| Cc1ccc2nc(SCC(=O)Nc3cccc4ccccc34)nc(=O)n2c1 | 14.6 |
| CC(C)CCNC(=O)C(C)N(C(=O)c1snc(C(N)=O)c1N)c1cnc2ccccc2c1 (stereo not drawn) | 10.4 |
| O=C1OC/C(=C(/O)c2ccc(Cl)cc2)C1=O | 15 |
| O=C(NCc1ccco1)c1ccc(Cl)c(S(=O)(=O)N2CCCC2)c1 | 8.73 |
| NC(=O)[C@H]1CC2(CC(c3cccc(NC(=O)COc4ccc(Cl)cc4)c3)=NO2)CN1C(=O)Cc1ccc([N+](=O)[O-])cc1 (stereo partly drawn) | 8.63 |
| CCc1c(C)c(C#N)c2nc3ccccc3n2c1NCc1ccco1 | -2.58 |

| Compound | hERG current change (%, negative = inhibition) at 1uM [%] |
| --- | --- |
| COCCC(=O)N1CCC(Oc2ccc(C(=O)NCCC3=CCCCC3)cc2)CC1 | -7.56 |
| O=C(O)c1ccc(CSc2ncn[nH]2)cc1 | 10.1 |
| O=C(Nc1cccc(S(=O)(=O)N2CCCCCC2)c1)C1CCN(C(=O)c2ccc(F)cc2)CC1 | -32.2 |
| O=C1Nc2cc(C(F)(F)F)ccc2N2CCCCC12 (stereo not drawn) | 13.7 |
| O=C(CCN1C(=O)C2CC=CCC2C1=O)Nc1cccc(S(=O)(=O)N2CCCCC2)c1 (stereo not drawn) | 7.36 |
| COc1cc2c(cc1/C=C1/NC(=O)N(c3ccccc3)C1=O)OCO2 | 5.77 |
| CC(C)N1CC(C(=O)Nc2cc(Cl)cc(Cl)c2)CC1=O (stereo not drawn) | 1.49 |
| Cc1ccccc1NC(=O)c1cc2c(=O)n3cccc(C)c3nc2s1 | 10.3 |
| CC(c1nccs1)N(C)C(=O)c1cn(Cc2cccc3ccccc23)nn1 (stereo not drawn) | 14.3 |
| CC1CN=C(Nc2ccc(F)cc2)S1 (stereo not drawn) | 14.3 |
| O=C(NCc1n[nH]c(=S)n1Cc1ccccc1)c1ccc(Cl)cc1Cl | 5.8 |
| O=C(CSc1nc2ccccc2[nH]1)Nc1ccc2c(c1)CCC2 | 14.9 |
| COc1cc(SC)ccc1C(=O)Nc1ccc(Br)cn1 | 16.1 |
| O=C(Nc1ccc(N2CCCCC2)c(Cl)c1)c1ncn[nH]1 | 4.55 |
| O=C(NC1CCCN(Cc2ccc(Cl)cc2)C1)c1cccc(N2CCCC2=O)c1 (stereo not drawn) | 7.03 |
| CCn1c(CC(=O)Nc2ccc(Cl)cc2)nnc1SCC(=O)N1CCOCC1 | 13.3 |
| O=C(NCc1ccco1)C(=O)c1cn(CC(=O)N2CCCCC2)c2ccccc12 | 9.58 |
| COc1ccc(OC)c(-c2nnc(SCC(=O)N3CCCC3)o2)c1 | 12.7 |
| O=C(O)/C(=C/c1ccco1)NC(=O)c1ccccc1 | -0.782 |
| O=C(C[C@@H]1NS(=O)(=O)OC2CCCCC21)c1ccccc1 (stereo partly drawn) | 3.72 |
| Cc1ccc(S(=O)(=O)Cn2nnnc2C(C(C)C)N2CCc3ccccc3C2)cc1 (stereo not drawn) | 6.72 |
| N=C1C(c2ccccc2)=C(O)CN1c1cccc(O)c1 | 18.9 |
